Some of the results follow.

In the test the test system is PF3D7_0420300 AP2 domain 1 (GST-tagged). The test is described as follows: gcPBM binding intensity (ln(normalized median fluorescence intensity)); higher = stronger DNA binding. A digest of the protocol:
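An Agilent 4 × 180k array of primer-extended double-stranded 36-bp intergenic genomic probes, with negative controls, was incubated for 1 h with GST-tagged P. falciparum DNA-binding domains expressed in E. coli. Alexa488 anti-GST antibody detected bound protein, scanned at 488 nm. Binding intensity is the highest Masliner-normalised natural-log median intensity across replicate spots of either probe orientation.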
For the sequence “GTCAAATTTTTGTGCACACATATATAGTTATTATTA [CACACA_site2241]”, the “gcPBM binding intensity (ln)” value is 9.67.

Turning to “TTTCTTTTCTCAGAAATTATTCAAATGAAAAAAAAT [TGCATGCA_negctrl_site44]”, the “gcPBM binding intensity (ln)” value was 8.69.

As for “TTACATATGGTTAGTAGTACATATATAAATGTAAAT [XGTACX_site7206]”, the “gcPBM binding intensity (ln)” value came to 9.28.

In the case of “AAAAAAAAAAAAAAAACACACACATACACCCAAAAA [CACACA_site7910]”, the “gcPBM binding intensity (ln)” value came out at 9.69.

Turning to “AAAAAATATTAATATAGTACTTTATATTTATAAGTA [XGTACX_site6895]”, the “gcPBM binding intensity (ln)” value worked out at 9.09.

In the case of TTTTTGTTATTTTTAGTGCACATTTAAGGGTGTATT, the “gcPBM binding intensity (ln)” value is 9.28.

Take “TATATCTTACTTTTTGCACACACTAATATTATTGTT [CACACA_site1640]”: the “gcPBM binding intensity (ln)” value came to 9.8.

For “GAAGGAAAAACAGAATGTACATAAATAAACGTATAT [XGTACX_site753]”, the “gcPBM binding intensity (ln)” value is 9.76.

With “ACAAAATTTACAAAATGTACAAAATTTACAAAATGT [XGTACX_site6464]”, the “gcPBM binding intensity (ln)” value stood at 9.12.

With “AATACGGCAAACATTAAAAAATATAATAACAATAAA [CACACA_negctrl_site868]”, the “gcPBM binding intensity (ln)” value is 9.53.

In the case of “ATCTGTCGACAGGACAGTACACAGTAGCCAGGAAAT [XGTACX_site1994]”, the “gcPBM binding intensity (ln)” value is 9.39.

For “TATATATATATATATATATATATGTATGTGCATTTA [TGCATGCA_negctrl_site53]”, the “gcPBM binding intensity (ln)” value stood at 9.07.

For the sequence “ATTTAGAAAAATAAAACACACATATATATGTAAATA [CACACA_site4113]”, the “gcPBM binding intensity (ln)” value amounted to 9.57.

Take “ATATAAAAATGTAAGGGTACATAATAAATAATCAAA [XGTACX_site5217]”: the “gcPBM binding intensity (ln)” value stood at 9.48.

For “ATATATTTACATATTACACACAATATTGTACACATA [CACACA_site6564]”, the “gcPBM binding intensity (ln)” value turned out to be 9.7.

In the case of “TTAAATATAATATTATGTACTAAATATTTTTTTATT [XGTACX_site6121]”, the “gcPBM binding intensity (ln)” value is 9.11.

Turning to TTTCTTTTTAAATAGGTGCATATTTTTATAAATATA, the “gcPBM binding intensity (ln)” value was 9.03.

“CTATTTCAGAAACACACACACACAAACAAACATATA [CACACA_site978]”: the “gcPBM binding intensity (ln)” value turned out to be 9.93.

As for “CAAGAAATTTACAAACGTACATATGTTCATACAAGG [XGTACX_site2372]”, the “gcPBM binding intensity (ln)” value is 9.3.

With “TTAGAGAAACAAAATTGTACATTATAAATTTGCCTT [XGTACX_site440]”, the “gcPBM binding intensity (ln)” value was determined as 9.01.

Turning to “TATTTGAAAGCCAATTGTACTTTAGTTTTTGAAACA [XGTACX_site5542]”, the “gcPBM binding intensity (ln)” value amounted to 8.81.

Regarding “TTTATATATATTCTCACACACTTTTTATTTTAACAA [CACACA_site4534]”, the “gcPBM binding intensity (ln)” value was determined as 9.53.

As for “ATAAATTTCCTCGTTTTTTTTTTTTTTTTTTTTTTT [CACACA_negctrl_site1173]”, the “gcPBM binding intensity (ln)” value was 9.15.

Consider “AAAAATATTTATAACACACACATAATATTTATATAT [CACACA_site7238]”, for which the “gcPBM binding intensity (ln)” value was found to be 9.83.

Regarding “TAAGGATGAATCCTTTGTACATATATATATATATAT [XGTACX_site1242]”, the “gcPBM binding intensity (ln)” value turned out to be 9.12.

With “TTTTTTTAAATATACACACACATTTATACATATATA [CACACA_site3400]”, the “gcPBM binding intensity (ln)” value is 9.61.

For “TGAAAAGAAAACACATGTACAAATATATAAATATAA [XGTACX_site6098]”, the “gcPBM binding intensity (ln)” value worked out at 9.48.

For “GTTATACATTTTGATTGTACATAAACCATTTGAGCA [XGTACX_site7283]”, the “gcPBM binding intensity (ln)” value came out at 9.05.

On to “TTTAACGTTGAATATACACACATATATATATATATA [CACACA_site3698]”, for which the “gcPBM binding intensity (ln)” value turned out to be 9.38.

“TATAAACATATCATATGTACATATATTTTTATAAAA [XGTACX_site8882]”: the “gcPBM binding intensity (ln)” value came to 9.05.

For ATATATTTTTGTAGTGTGCACGTTTATATGGTGAAA, the “gcPBM binding intensity (ln)” value is 9.38.

For “AAGAAAAAATAAAAAATAAAAATAAAAAATAAAAAA [TGCATGCA_negctrl_site274]”, the “gcPBM binding intensity (ln)” value was found to be 9.23.

In the case of “ATCCAAAAAATTAATGCATGCGCAAAAAATAGCTTA [TGCATGCA_site615]”, the “gcPBM binding intensity (ln)” value amounted to 9.11.

On to “AAAAAAAAAACATACACACACATATATATATATATG [CACACA_site1586]”, for which the “gcPBM binding intensity (ln)” value stood at 9.93.

As for “TGTCCTTATTTGCACACACACATATAAGAAATTTAA [CACACA_site7485]”, the “gcPBM binding intensity (ln)” value turned out to be 9.91.

As to “TTTGTTTTATCTTATATGCACACGATAAAAAAAAAA [CACACA_site2673]”, the “gcPBM binding intensity (ln)” value turned out to be 9.03.

For the sequence “AGATGATATACGTAAACACACAAATAAAAAAAATTT [CACACA_site3327]”, the “gcPBM binding intensity (ln)” value worked out at 9.54.

On to “ACAAAAAAATAAGGTGCACACAAAAAAAAAAAAAAA [CACACA_site8171]”, for which the “gcPBM binding intensity (ln)” value is 9.5.

“TTTTTTTTTTTTTGATGTACTTATTTAATAAGATAT [XGTACX_site376]”: the “gcPBM binding intensity (ln)” value turned out to be 8.99.

In the case of “TATATGGCATATTTCACACACACATAATGAATATTA [CACACA_site9181]”, the “gcPBM binding intensity (ln)” value turned out to be 9.77.

Turning to “GAGTTCAGTTTTTGTTGTACTTATTCTTAATATGTC [XGTACX_site6083]”, the “gcPBM binding intensity (ln)” value is 9.53.

For “ATATAGCATATAATTTGTACACAGGCCATACCTGAA [XGTACX_site533]”, the “gcPBM binding intensity (ln)” value amounted to 9.28.

As for “TACATATAAAAGTACACACACACACCCATATATATA [CACACA_site941]”, the “gcPBM binding intensity (ln)” value stood at 10.2.

On to “ATGGACTTTTATAGTTGTACATACTATGAGAACTTT [XGTACX_site2800]”, for which the “gcPBM binding intensity (ln)” value was found to be 9.16.

With “TAAAATAAATTGTGCACACATATTTATAAATATGAA [CACACA_site2331]”, the “gcPBM binding intensity (ln)” value stood at 9.34.

(Values after the supplement of paper PMC11417369.)
